The values that follow come from patent US20160083450A1, “HUMAN PROTEIN SCAFFOLD WITH CONTROLLED SERUM PHARMACOKINETICS” (THE REGENTS OF THE UNIVERSITY OF CALIFORNIA, priority 2009, published 2016).

Details of series [1]: species or system athymic nude mice. To be noted: mouse, in vivo. On the procedure:
(§1) For in vivo studies, 7 to 8 week old athymic nude mice (Charles River Laboratories, Wilmington, Mass.) were injected subcutaneously in the left shoulder region with 1-5×10^6 CEA-positive LS174T human colon carcinoma cells (American Type Culture Collection, Manassas, Va.) and in the right shoulder area with approximately the same number of CEA-negative C6 rat glioma cells (ATCC). Tumor masses were allowed to develop for an average of 10 days and reached a maximum of 200 mg weight. […] At five different time points (4 h, 20 h, 28 h, 44 h and 51 h), the injected mice were anesthetized using 2% isoflurane, placed on the bed, and imaged for 10 min. A 10 min CT scan was completed following the final PET scan at 51 h. All imaging experiments utilized the Focus 220 small animal PET (Siemens Preclinical Solutions, Knoxville, Tenn.) and the small animal CAT II (Concorde Microsystems, Knoxville, Tenn.) scanners. Following the last scan (51 h), mice were euthanized. Blood, tumors (LS174T and C6), liver, spleen, kidneys, lungs and carcass were collected, weighed, and counted in a Wallac WIZARD Automatic Gamma Counter (PerkinElmer Life and Analytical Sciences Inc., Wellesley, Mass.). After decay correction, the percent injected dose per gram (% ID/g) for each tissue/organ was calculated, incorporating a correction for the labeling efficiency of each protein and a standard error (SE).
(§2) The same color threshold was applied to all images. Regions of interest (ROI; ellipsoid, 0.4 mm depth, n=4) were drawn in the area of the CEA-positive tumor and in a low-activity, soft tissue region of the lower body (muscle). Tumor-to-soft tissue (T:ST) ratios were determined for individual mice and averaged for each time point and construct. ROIs (n=4) were drawn over the heart on each image and % ID/g of blood was calculated by the AMIDE software after entering the injected dose in MBq and cylinder factor in MBq/cc/image units as input functions. The ADAPTII software package was used to calculate the mean residence time (MRT) of each protein from its blood activity curve (D′argenio and Schumitzky, 1979). SE was calculated for all ratios and % ID/g values, and expressed graphically (error bars). All T:ST ROI ratios and blood activity curves, respectively, were compared for significant difference using an unpaired Student t test. A 2-tailed P value of less than or equal to 0.05 was considered statistically significant.

Series [2] relates to LS174T (CEA-positive) tumor. The arrangement: species or system athymic nude mice. Particulars: mouse, in vivo. As to the method: Purified Db-DIII WT, H535A, H510A and H464A were radioiodinated with the positron emitter ^124I (sodium iodide in 0.02 M NaOH; IBA Molecular, Sterling, Va.) using the Iodogen method as previously described (Olafsen et al., 2006). Labeling reactions (0.114-0.130 ml) contained 0.1 mg purified protein and 12.9-18.0 MBq Na^124I. Labeling efficiency was measured by instant thin layer chromatography (ITLC) using the monoclonal antibody ITLC strips kit (Biodex Medical Systems, Shirly, N.Y.), as previously described (Olafsen et al., 2006).
as §1

In series [3] the test system is LS174T (CEA-positive) tumor. Nature of the series: Serial small animal PET/CT imaging of 124I-labeled Db-DIII proteins and Db: tumor targeting, tumor-to-soft tissue ROI ratios. Particulars: for T:ST ROI ratio compared to the WT: 51 h; for Time at which tumor targeting was noted (as early as): PET images, LS174T tumor. It is filed as in vivo, athymic nude mice. On the procedure:
as §1, §2

B1: Db-DIII H464A: fusion protein of anti-CEA diabody and HSA DIII with H464 mutated to alanine (protein)
scFv-DIII 1: DIVLTQSPASLAVSLGQRATMSCRAGESVDIFGVGFLHWYQQKPGQPPKLLIYRASNLESGIPVRFSGTGSRTDFTLIIDPVEADDVATYYCQQTNEDPYTFGGGTKLEIKGGGSGGGGEVQLQQSGAELVEPGASVKLSCTASGFNIKDTYMHWVKQRPEQGLEWIGRIDPANGNSKYVPKFQGKATITADTSSNTAYLQLTSLTSEDTAVYYCAPFGYYVSDYAMAYWGQGTSVTVSSGSTSGSGKPGSGEGSTS[letters of about 200 residues with changes omitted]
scFv-DIII 2: DIVLTQSPASLAVSLGQRATMSCRAGESVDIFGVGFLHWYQQKPGQPPKLLIYRASNLESGIPVRFSGTGSRTDFTLIIDPVEADDVATYYCQQTNEDPYTFGGGTKLEIKGGGSGGGGEVQLQQSGAELVEPGASVKLSCTASGFNIKDTYMHWVKQRPEQGLEWIGRIDPANGNSKYVPKFQGKATITADTSSNTAYLQLTSLTSEDTAVYYCAPFGYYVSDYAMAYWGQGTSVTVSSGSTSGSGKPGSGEGSTS[letters of about 200 residues with changes omitted]
Turning to B1, in series [1], the “Blood AUC” value is 354, the “First Mo (first moment)” value worked out at 24 h and the “MRT (mean residence time)” value is 17 h. Besides, in series [2], the Blood is reported as 1.56 % ID/g, the Carcass came to 0.28 % ID/g, the Kidneys is recorded as 0.58 % ID/g and the Liver is reported as 0.44 % ID/g. In series [2], this molecule registered a Lungs of 0.85 % ID/g and a Spleen of 0.50 % ID/g. For the same molecule, the “Radioactivity (% ID/g) remaining in blood, fold higher than that for the Db injected mice” value in series [2] (51 h) worked out at 20 fold. Besides, in series [3], the “T:ST ROI ratio compared to the WT” value is recorded as “significantly higher T:ST ratios compared to the WT” and the “Time at which tumor targeting was noted (as early as)” value (“Time … (as early as)” for short) is on record as 4 h.

B2: Db-DIII H535A: fusion protein of anti-CEA diabody and HSA DIII with H535 mutated to alanine (protein)
scFv-DIII 1: DIVLTQSPASLAVSLGQRATMSCRAGESVDIFGVGFLHWYQQKPGQPPKLLIYRASNLESGIPVRFSGTGSRTDFTLIIDPVEADDVATYYCQQTNEDPYTFGGGTKLEIKGGGSGGGGEVQLQQSGAELVEPGASVKLSCTASGFNIKDTYMHWVKQRPEQGLEWIGRIDPANGNSKYVPKFQGKATITADTSSNTAYLQLTSLTSEDTAVYYCAPFGYYVSDYAMAYWGQGTSVTVSSGSTSGSGKPGSGEGSTS[letters of about 200 residues with changes omitted]
scFv-DIII 2: DIVLTQSPASLAVSLGQRATMSCRAGESVDIFGVGFLHWYQQKPGQPPKLLIYRASNLESGIPVRFSGTGSRTDFTLIIDPVEADDVATYYCQQTNEDPYTFGGGTKLEIKGGGSGGGGEVQLQQSGAELVEPGASVKLSCTASGFNIKDTYMHWVKQRPEQGLEWIGRIDPANGNSKYVPKFQGKATITADTSSNTAYLQLTSLTSEDTAVYYCAPFGYYVSDYAMAYWGQGTSVTVSSGSTSGSGKPGSGEGSTS[letters of about 200 residues with changes omitted]
On to B2, for which, in series [1], the “Blood AUC” value is 470; the “Blood clearance / persistence, statistical comparison of blood activity curves” value was “significantly longer blood persistence, compared to the H464A variant”; the “First Mo (first moment)” value is recorded as 66 h; the “MRT (mean residence time)” value worked out at 25 h. Besides, in series [2], the Blood was found to be 2.04 % ID/g, the Carcass is on record as 0.33 % ID/g, the Kidneys stood at 0.75 % ID/g and the Liver was found to be 0.67 % ID/g. In series [2], this molecule yielded a Lungs of 0.91 % ID/g and a Spleen of 0.63 % ID/g. In series [3], the “T:ST ROI ratio compared to the WT” value was “significantly higher T:ST ratios compared to the WT” and the “Time … (as early as)” value is 20 h.

B3: Db-DIII H510A: fusion protein of anti-CEA diabody and HSA DIII with H510 mutated to alanine (protein)
scFv-DIII 1: DIVLTQSPASLAVSLGQRATMSCRAGESVDIFGVGFLHWYQQKPGQPPKLLIYRASNLESGIPVRFSGTGSRTDFTLIIDPVEADDVATYYCQQTNEDPYTFGGGTKLEIKGGGSGGGGEVQLQQSGAELVEPGASVKLSCTASGFNIKDTYMHWVKQRPEQGLEWIGRIDPANGNSKYVPKFQGKATITADTSSNTAYLQLTSLTSEDTAVYYCAPFGYYVSDYAMAYWGQGTSVTVSSGSTSGSGKPGSGEGSTS[letters of about 200 residues with changes omitted]
scFv-DIII 2: DIVLTQSPASLAVSLGQRATMSCRAGESVDIFGVGFLHWYQQKPGQPPKLLIYRASNLESGIPVRFSGTGSRTDFTLIIDPVEADDVATYYCQQTNEDPYTFGGGTKLEIKGGGSGGGGEVQLQQSGAELVEPGASVKLSCTASGFNIKDTYMHWVKQRPEQGLEWIGRIDPANGNSKYVPKFQGKATITADTSSNTAYLQLTSLTSEDTAVYYCAPFGYYVSDYAMAYWGQGTSVTVSSGSTSGSGKPGSGEGSTS[letters of about 200 residues with changes omitted]
With B3, in series [1], the “Blood AUC” value turned out to be 528, the “First Mo (first moment)” value is listed as 38 h and the “MRT (mean residence time)” value is given as 20 h. For the same molecule, in series [2], the Blood came out at 1.77 % ID/g, the Carcass was 0.40 % ID/g, the Kidneys was found to be 0.53 % ID/g and the Liver worked out at 0.54 % ID/g. In series [2], this molecule registered a Lungs of 0.98 % ID/g and a Spleen of 0.58 % ID/g. In series [3], the “T:ST ROI ratio compared to the WT” value was “significantly higher T:ST ratios compared to the WT” and the “Time … (as early as)” value was determined as 20 h.
